Reference: PMC9911399, “Two distinct binding modes provide the RNA-binding protein RbFox with extraordinary sequence specificity”
Positions count from the first letter of the chain named. The list shows a part of the results.

T1: RBFOX1 RRM (Homo sapiens, UniProt Q9NWB1 109-208)
T1 sequence: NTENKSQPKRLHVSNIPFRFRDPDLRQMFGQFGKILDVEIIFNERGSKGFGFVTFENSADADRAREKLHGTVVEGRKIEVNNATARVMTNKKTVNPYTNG

B1: GCUGGGC (DNA:RNA)
RNA: GGGAGACCGGAAUUCAGAUUGUCCGCUGGGCUUAAAUCCCGUCGUAGCCACCA
DNA 1: CAATCTGAATTCCGGTCTCCC
DNA 2: TGGTGGCTACGACGGGATT
B2: UCCGCAU (DNA:RNA)
RNA: B1 RNA with G25U, U27C, G29C, G30A, C31U
DNA 1: CAATCTGAATTCCGGTCTCCC
DNA 2: TGGTGGCTACGACGGGATT
B3: CAGAAUC (DNA:RNA)
RNA: B1 RNA with G25C, C26A, U27G, G28A, G29A, G30U
DNA 1: CAATCTGAATTCCGGTCTCCC
DNA 2: TGGTGGCTACGACGGGATT
B4: ACGAGAC (DNA:RNA)
RNA: B1 RNA with G25A, U27G, G28A, G30A
DNA 1: CAATCTGAATTCCGGTCTCCC
DNA 2: TGGTGGCTACGACGGGATT
B5: GACCGAA (DNA:RNA)
RNA: B1 RNA with C26A, U27C, G28C, G30A, C31A
DNA 1: CAATCTGAATTCCGGTCTCCC
DNA 2: TGGTGGCTACGACGGGATT
B6: AGCGAAU (DNA:RNA)
RNA: B1 RNA with G25A, C26G, U27C, G29A, G30A, C31U
DNA 1: CAATCTGAATTCCGGTCTCCC
DNA 2: TGGTGGCTACGACGGGATT
B7: GCAGGCC (DNA:RNA)
RNA: B1 RNA with U27A, G30C
DNA 1: CAATCTGAATTCCGGTCTCCC
DNA 2: TGGTGGCTACGACGGGATT
B8: UGUCCGA (DNA:RNA)
RNA: B1 RNA with G25U, C26G, G28C, G29C, C31A
DNA 1: CAATCTGAATTCCGGTCTCCC
DNA 2: TGGTGGCTACGACGGGATT
B9: CGGUGUG (DNA:RNA)
RNA: B1 RNA with G25C, C26G, U27G, G28U, G30U, C31G
DNA 1: CAATCTGAATTCCGGTCTCCC
DNA 2: TGGTGGCTACGACGGGATT
B10: CUCUGGU (DNA:RNA)
RNA: B1 RNA with G25C, C26U, U27C, G28U, C31U
DNA 1: CAATCTGAATTCCGGTCTCCC
DNA 2: TGGTGGCTACGACGGGATT
B11: AACGUCU (DNA:RNA)
RNA: B1 RNA with G25A, C26A, U27C, G29U, G30C, C31U
DNA 1: CAATCTGAATTCCGGTCTCCC
DNA 2: TGGTGGCTACGACGGGATT
B12: ACGCAGG (DNA:RNA)
RNA: B1 RNA with G25A, U27G, G28C, G29A, C31G
DNA 1: CAATCTGAATTCCGGTCTCCC
DNA 2: TGGTGGCTACGACGGGATT
B13: AGGAGCU (DNA:RNA)
RNA: B1 RNA with G25A, C26G, U27G, G28A, G30C, C31U
DNA 1: CAATCTGAATTCCGGTCTCCC
DNA 2: TGGTGGCTACGACGGGATT
B14: GCCAUUA (DNA:RNA)
RNA: B1 RNA with U27C, G28A, G29U, G30U, C31A
DNA 1: CAATCTGAATTCCGGTCTCCC
DNA 2: TGGTGGCTACGACGGGATT
B15: AAGAUGG (DNA:RNA)
RNA: B1 RNA with G25A, C26A, U27G, G28A, G29U, C31G
DNA 1: CAATCTGAATTCCGGTCTCCC
DNA 2: TGGTGGCTACGACGGGATT
B16: GUGUAUU (DNA:RNA)
RNA: B1 RNA with C26U, U27G, G28U, G29A, G30U, C31U
DNA 1: CAATCTGAATTCCGGTCTCCC
DNA 2: TGGTGGCTACGACGGGATT
B17: UAUUGCC (DNA:RNA)
RNA: B1 RNA with G25U, C26A, G28U, G30C
DNA 1: CAATCTGAATTCCGGTCTCCC
DNA 2: TGGTGGCTACGACGGGATT
B18: UGACAGG (DNA:RNA)
RNA: B1 RNA with G25U, C26G, U27A, G28C, G29A, C31G
DNA 1: CAATCTGAATTCCGGTCTCCC
DNA 2: TGGTGGCTACGACGGGATT
B19: UCCCGUU (DNA:RNA)
RNA: B1 RNA with G25U, U27C, G28C, G30U, C31U
DNA 1: CAATCTGAATTCCGGTCTCCC
DNA 2: TGGTGGCTACGACGGGATT
B20: GGGUGCG (DNA:RNA)
RNA: B1 RNA with C26G, U27G, G28U, G30C, C31G
DNA 1: CAATCTGAATTCCGGTCTCCC
DNA 2: TGGTGGCTACGACGGGATT

What follows are binders tested against T1, RBFOX1 RRM (assay: EMSA; HiTS-Eq, 1 nM pool, 10 min; buffer printed only for the single-RNA assays: 10 mM Tris pH 7.5, 150 mM NaCl, 3.4 mM EDTA, 0.001% NP-40, 30 C). Settings: tags: His6 N-terminal (pET28a); label: 5' 32P.
Procedure, shortened: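 Purified RbFox RRM, wild type or mutant, was incubated for 10 min in 50 µL with 1 nM of a 5′-radiolabelled RNA pool carrying 7 randomized nucleotides, whose flanks were annealed to DNA oligonucleotides, over a series of increasing protein concentrations. Unbound RNA was resolved on 8% native PAGE, cut out, reverse-transcribed, barcoded by PCR and sequenced on an Illumina HiSeq 2500. Relative association constants were derived from changes in read counts for each RNA species versus the control reaction and normalised to the cognate motif.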
With B1 the binding signal was 0.0189 KA relative to UGCAUGU.
With B2 the binding signal was 0.012 KA relative to UGCAUGU.
In the case of B3, the binding signal is reported as 0.00729 KA relative to UGCAUGU.
For B4, the binding signal was 0.00391 KA relative to UGCAUGU.
For B5, the binding signal was 0.00805 KA relative to UGCAUGU.
For B6, the binding signal was 0.0102 KA relative to UGCAUGU.
With B7 the binding signal was 0.0146 KA relative to UGCAUGU.
B8 was tested, and the binding signal was 0.0182 KA relative to UGCAUGU.
In the case of B9, the binding signal is reported as 0.0206 KA relative to UGCAUGU.
For B10, the binding signal was 0.0162 KA relative to UGCAUGU.
For B11, the binding signal was 0.00544 KA relative to UGCAUGU.
With B12 the binding signal was 0.0124 KA relative to UGCAUGU.
For B13, the binding signal was 0.0158 KA relative to UGCAUGU.
With B14 the binding signal was 0.00314 KA relative to UGCAUGU.
With B15 the binding signal was 0.0118 KA relative to UGCAUGU.
B16 was tested, and the binding signal was 0.00736 KA relative to UGCAUGU.
For B17, the binding signal was 0.012 KA relative to UGCAUGU.
In the case of B18, the binding signal is reported as 0.0122 KA relative to UGCAUGU.
For B19, the binding signal was 0.0034 KA relative to UGCAUGU.
In the case of B20, the binding signal is reported as 0.023 KA relative to UGCAUGU.
